# Experimental data: the supplement of paper PMC8728848
# Some of the results follow.
# B1: LKPARMA (Neurospora crassa) (protein)
# chain: MSFHVTAEDARRIEVRDNRTILFARLRREDGEWNDASYELDQIIGNNDGHFQWGGGQNFTETAEDIRFHPKEGAAEQPILRARLRDCNGEFHDRDVNLTEIVENVNGEFQAKF
# Tests used:
# Assay in all cases: glycan array binding signal (z-score within array); higher = stronger binding
# Conditions in all cases: glycan notation: IUPAC condensed, linker removed
# Gal4S6S(b1-4)GlcNAc = target: Gal4S6S(b1-4)GlcNAc
# How it was run: (§1)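 Negative Z-scores can be read as non-binding. The Z-score is calculated within each array and then averaged across arrays of one protein sequence at different concentrations or buffers and across linkers. Arrays, 3228 in all, were curated from the Consortium for Functional Glycomics database and kept only where the protein sequence was available.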
# Gal6S(b1-4)Glc = target: Gal6S(b1-4)Glc
# How it was run: as §1
# Gal6S(b1-4)Glc6S = target: Gal6S(b1-4)Glc6S
# How it was run: as §1
# Gal6S(b1-4)GlcNAc = target: Gal6S(b1-4)GlcNAc
# How it was run: as §1
# GalNAc(a1-3)Gal = target: GalNAc(a1-3)Gal
# How it was run: as §1
# GalNAc(a1-3)GalNAc = target: GalNAc(a1-3)GalNAc
# How it was run: as §1
# [1] = target: GalNAc(b1-3)Gal(a1-4)Gal(b1-4)GlcNAc
# How it was run: as §1
# GalNAc(b1-3)GalNAc = target: GalNAc(b1-3)GalNAc
# How it was run: as §1
# GalNAc(b1-4)GlcNAc = target: GalNAc(b1-4)GlcNAc
# How it was run: as §1
# Glc(a1-4)Glc = target: Glc(a1-4)Glc
# How it was run: as §1
# Glc(a1-6)Glc(a1-6)Glc = target: Glc(a1-6)Glc(a1-6)Glc
# How it was run: as §1
# Glc(b1-4)Glc = target: Glc(b1-4)Glc
# How it was run: as §1
# Glc(b1-6)Glc = target: Glc(b1-6)Glc
# How it was run: as §1
# GlcA(b1-3)Gal = target: GlcA(b1-3)Gal
# How it was run: as §1
# GlcA(b1-6)Gal = target: GlcA(b1-6)Gal
# How it was run: as §1
# [2] = target: GlcNAc(a1-3)Gal(b1-4)GlcNAc
# How it was run: as §1
# [3] = target: GlcNAc(a1-6)Gal(b1-4)GlcNAc
# How it was run: as §1
# [4] = target: GlcNAc(b1-2)Gal(b1-3)GalNAc
# How it was run: as §1
# [5] = target: GlcNAc(b1-2)Man(a1-3)[GlcNAc(b1-2)Man(a1-6)]Man(b1-4)GlcNAc(b1-4)GlcNAc
# How it was run: as §1
# GlcNAc(b1-3)Gal = target: GlcNAc(b1-3)Gal
# How it was run: as §1
# [6] = target: GlcNAc(b1-3)Gal(b1-3)GalNAc
# How it was run: as §1
# GlcNAc(b1-3)Gal(b1-4)Glc = target: GlcNAc(b1-3)Gal(b1-4)Glc
# How it was run: as §1
# [7] = target: GlcNAc(b1-3)Gal(b1-4)GlcNAc
# How it was run: as §1
# [8] = target: GlcNAc(b1-3)Gal(b1-4)GlcNAc(b1-3)Gal(b1-4)GlcNAc
# How it was run: as §1
# GlcNAc(b1-3)GalNAc = target: GlcNAc(b1-3)GalNAc
# How it was run: as §1
# [9] = target: GlcNAc(b1-3)[GlcNAc(b1-6)]Gal(b1-4)GlcNAc
# How it was run: as §1
# [10] = target: GlcNAc(b1-3)[GlcNAc(b1-6)]GalNAc
# How it was run: as §1
# [11] = target: GlcNAc(b1-3)[GlcNAc(b1-6)]GlcNAc(b1-4)GlcNAc
# How it was run: as §1
# [12] = target: GlcNAc(b1-4)Gal(b1-4)GlcNAc
# How it was run: as §1
# [13] = target: GlcNAc(b1-4)GlcNAc(b1-4)GlcNAc
# How it was run: as §1
# [14] = target: GlcNAc(b1-4)GlcNAc(b1-4)GlcNAc(b1-4)GlcNAc(b1-4)GlcNAc
# How it was run: as §1
# [15] = target: GlcNAc(b1-4)GlcNAc(b1-4)GlcNAc(b1-4)GlcNAc(b1-4)GlcNAc(b1-4)GlcNAc
# How it was run: as §1
# [16] = target: GlcNAc(b1-4)[GlcNAc(b1-6)]GalNAc
# How it was run: as §1
# [17] = target: GlcNAc(b1-6)Gal(b1-4)GlcNAc
# How it was run: as §1
# GlcNAc(b1-6)GalNAc = target: GlcNAc(b1-6)GalNAc
# How it was run: as §1
# Kdn(a2-3)Gal(b1-3)GlcNAc = target: Kdn(a2-3)Gal(b1-3)GlcNAc
# How it was run: as §1
# Kdn(a2-3)Gal(b1-4)GlcNAc = target: Kdn(a2-3)Gal(b1-4)GlcNAc
# How it was run: as §1
# [18] = target: Man(a1-2)Man(a1-2)Man(a1-3)Man
# How it was run: as §1
# [19] = target: Man(a1-2)Man(a1-2)Man(a1-6)[Man(a1-3)]Man
# How it was run: as §1
# Man(a1-2)Man(a1-3)Man = target: Man(a1-2)Man(a1-3)Man
# How it was run: as §1
# [20] = target: Man(a1-2)Man(a1-3)[Man(a1-2)Man(a1-6)]Man
# How it was run: as §1
# [21] = target: Man(a1-2)Man(a1-3)[Man(a1-2)Man(a1-6)]Man(a1-6)[Man(a1-2)Man(a1-2)Man(a1-3)]Man(b1-4)GlcNAc(b1-4)GlcNAc
# How it was run: as §1
# [22] = target: Man(a1-2)Man(a1-3)[Man(a1-6)]Man(a1-6)[Man(a1-2)Man(a1-3)]Man(b1-4)GlcNAc(b1-4)GlcNAc
# How it was run: as §1
# [23] = target: Man(a1-2)Man(a1-6)[Man(a1-3)]Man(a1-6)[Man(a1-2)Man(a1-2)Man(a1-3)]Man(b1-4)GlcNAc(b1-4)GlcNAc
# How it was run: as §1
# Man(a1-3)[Man(a1-6)]Man = target: Man(a1-3)[Man(a1-6)]Man
# How it was run: as §1
binder,measurement,setting,value
B1,glycan array binding signal (z-score),Gal4S6S(b1-4)GlcNAc,-0.246
same,glycan array binding signal (z-score),Gal6S(b1-4)Glc,-0.252
same,glycan array binding signal (z-score),Gal6S(b1-4)Glc6S,-0.087
same,glycan array binding signal (z-score),Gal6S(b1-4)GlcNAc,-0.246
same,glycan array binding signal (z-score),GalNAc(a1-3)Gal,-0.252
same,glycan array binding signal (z-score),GalNAc(a1-3)GalNAc,-0.249
same,glycan array binding signal (z-score),[1],2.94
same,glycan array binding signal (z-score),GalNAc(b1-3)GalNAc,-0.223
same,glycan array binding signal (z-score),GalNAc(b1-4)GlcNAc,-0.249
same,glycan array binding signal (z-score),Glc(a1-4)Glc,-0.245
same,glycan array binding signal (z-score),Glc(a1-6)Glc(a1-6)Glc,7.12
same,glycan array binding signal (z-score),Glc(b1-4)Glc,1.29
same,glycan array binding signal (z-score),Glc(b1-6)Glc,6.76
same,glycan array binding signal (z-score),GlcA(b1-3)Gal,-0.254
same,glycan array binding signal (z-score),GlcA(b1-6)Gal,-0.17
same,glycan array binding signal (z-score),[2],-0.249
same,glycan array binding signal (z-score),[3],-0.251
same,glycan array binding signal (z-score),[4],-0.252
same,glycan array binding signal (z-score),[5],-0.251
same,glycan array binding signal (z-score),GlcNAc(b1-3)Gal,-0.249
same,glycan array binding signal (z-score),[6],-0.248
same,glycan array binding signal (z-score),GlcNAc(b1-3)Gal(b1-4)Glc,-0.243
same,glycan array binding signal (z-score),[7],-0.247
same,glycan array binding signal (z-score),[8],-0.25
same,glycan array binding signal (z-score),GlcNAc(b1-3)GalNAc,-0.249
same,glycan array binding signal (z-score),[9],-0.23
same,glycan array binding signal (z-score),[10],-0.199
same,glycan array binding signal (z-score),[11],-0.24
same,glycan array binding signal (z-score),[12],-0.252
same,glycan array binding signal (z-score),[13],-0.243
same,glycan array binding signal (z-score),[14],-0.251
same,glycan array binding signal (z-score),[15],-0.254
same,glycan array binding signal (z-score),[16],-0.251
same,glycan array binding signal (z-score),[17],-0.25
same,glycan array binding signal (z-score),GlcNAc(b1-6)GalNAc,-0.25
same,glycan array binding signal (z-score),Kdn(a2-3)Gal(b1-3)GlcNAc,-0.252
same,glycan array binding signal (z-score),Kdn(a2-3)Gal(b1-4)GlcNAc,-0.249
same,glycan array binding signal (z-score),[18],1.38
same,glycan array binding signal (z-score),[19],2.65
same,glycan array binding signal (z-score),Man(a1-2)Man(a1-3)Man,-0.23
same,glycan array binding signal (z-score),[20],1.98
same,glycan array binding signal (z-score),[21],0.133
same,glycan array binding signal (z-score),[22],-0.162
same,glycan array binding signal (z-score),[23],-0.223
same,glycan array binding signal (z-score),Man(a1-3)[Man(a1-6)]Man,-0.241
